Experiment [1] has as its target T1, human B7-H4 (human, UniProt Q7Z7D3 25-282).
T1 construct: whole, on cells; also called VTCN1; SK-BR-3 cell line highly expressing B7-H4
T1 sequence (looked up): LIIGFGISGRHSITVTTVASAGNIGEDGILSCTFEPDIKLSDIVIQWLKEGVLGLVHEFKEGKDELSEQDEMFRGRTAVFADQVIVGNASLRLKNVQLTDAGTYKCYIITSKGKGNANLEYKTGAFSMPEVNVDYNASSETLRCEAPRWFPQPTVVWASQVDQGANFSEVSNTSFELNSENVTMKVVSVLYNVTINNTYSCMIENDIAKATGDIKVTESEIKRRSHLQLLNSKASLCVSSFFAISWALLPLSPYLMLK
As to the kind of experiment: FACS, SK-BR-3 cells [H]. For orientation: In flow cytometry, cells or beads pass a laser one at a time.

For experiment [2], the target named is T2, human 4-1BB (human, UniProt Q07011 24-255).
T2 construct: whole, on cells; also called CD137; TNFRSF9
As to the kind of experiment: FACS, CHO-K1/h4-1BB cells [G].

In experiment [3] the target is T3, cynomolgus monkey 4-1BB (cynomolgus monkey).
T3 construct: whole, on cells; also called CHO-K1-cyno 4-1BB; CHO-K1/cyno4-1BB
Nature of the experiment: FACS, CHO-K1/cyno 4-1BB cells [C].

For experiment [4], the target named is T2, human 4-1BB. Nature of the experiment: FACS, CHO-K1/h4-1BB cells [E].
Experiment [5] deals with T3, cynomolgus monkey 4-1BB. As to the kind of experiment: FACS, CHO-K1/cyno 4-1BB cells [B].

Data on 5 molecules can be found in patent US20230235090A1 (HARBOUR BIOMED US, published 2023).

By EC50 is commonly meant the concentration at which the effect is half-maximal.

T2 sequence (Q07011 24-255): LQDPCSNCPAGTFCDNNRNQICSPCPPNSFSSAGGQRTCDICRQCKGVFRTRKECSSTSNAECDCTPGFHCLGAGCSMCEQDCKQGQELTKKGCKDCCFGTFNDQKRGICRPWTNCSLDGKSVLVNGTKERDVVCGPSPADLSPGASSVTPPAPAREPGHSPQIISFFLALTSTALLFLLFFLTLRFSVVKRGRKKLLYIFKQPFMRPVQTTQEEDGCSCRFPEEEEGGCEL

B1: PR004357 (bispecific antibody, human IgG1, kappa, L234A L235A)
light: EIVMTQSPASLSVSPGERATLSCRASQSVSSNLAWYQQKPGQAPRLLIYGASTRATGIPARVSGGGSGTEFTLTISSLQSEDFAVYYCQQYKNWPFTFGPGTKLEIKRTVAAPSVFIFPPSDEQLKSGTASVVCLLNNFYPREAKVQWKVDNALQSGNSQESVTEQDSKDSTYSLSSTLTLSKADYEKHKVYACEVTHQGLSSPVTKSFNRGEC
heavy: QVQLVQSGAEVKKPGSSMRVSCKASEDTFSSYAISWVRQAPGQGLEWMGGTAPIFGTTNYAQKFQGRVTITADKSTSTAYMELSSLRSEDTAVYYCARGGPYFDYWGQGTLVTVSSASTKGPSVFPLAPSSKSTSGGTAALGCLVKDYFPEPVTVSWNSGALTSGVHTFPAVLQSSGLYSLSSVVTVPSSSLGTQTYICNVNHKPSNTKVDKKVEPKSCDKTHTCPPCPAPEAAGGPSVFLFPPKPKDTLMISRTPEVTCVVVDVSHEDPEVKFNWYVDGVEVHNAKTKPREEQYNSTYRVVSVLTVLHQDWLNGKEYKCKVSNKALGAPIEKTISKAKGQPREPQVYTLPPSREEMTKNQVSLTCLVKGFYPSDIAVEWESNGQPENNYKTTPPVLDSDGSFFLYSKLTVDKSRWQQGNVFSCSVMHEALHNHYTQKSLSLSPGEPKSSDKTHTPPPPPRTEVQLVESGGGLVQPGGSLRLSCAASGFTFSSYWMHWVRQAPGKGLVWVSRINSDGSSTSYADSVQGRFTISRDNAKNTLYLQMNSLRAEDTAVYYCVRKGSSSYYHYSIEDDWGQGTLVTVSS
notes: IgG-VH tetravalent symmetric; PR002410 IgG x PR001840 VH; IgG1 (L234A, L235A, P329G)
B1: in experiment [1], the EC50 amounted to 1.43 nM and the “Maximum MFI” value was 53300 MFI. In addition, in experiment [2], the EC50 was found to be 0.432 nM and the “Maximum MFI” value came out at 99200 MFI.

B2: PR004359 (bispecific antibody, human IgG1, kappa)
light: EIVMTQSPASLSVSPGERATLSCRASQSVSSNLAWYQQKPGQAPRLLIYGASTRATGIPARVSGGGSGTEFTLTISSLQSEDFAVYYCQQYKNWPFTFGPGTKLEIKRTVAAPSVFIFPPSDEQLKSGTASVVCLLNNFYPREAKVQWKVDNALQSGNSQESVTEQDSKDSTYSLSSTLTLSKADYEKHKVYACEVTHQGLSSPVTKSFNRGEC
heavy: QVQLVQSGAEVKKPGSSMRVSCKASEDTFSSYAISWVRQAPGQGLEWMGGTAPIFGTTNYAQKFQGRVTITADKSTSTAYMELSSLRSEDTAVYYCARGGPYFDYWGQGTLVTVSSASTKGPSVFPLAPSSKSTSGGTAALGCLVKDYFPEPVTVSWNSGALTSGVHTFPAVLQSSGLYSLSSVVTVPSSSLGTQTYICNVNHKPSNTKVDKKV[letters of human IgG1 Fc with changes not shown]EPKSSDKTHTPPPPPRTEVQLLESGGGLVQPGGSLRLSCAASGFTFSNYAMSWFRQPPETGLKWVSSIDGSGGDTYYADSVKGRFTISRDNSKNTLYLQMNSLRAEDTAVYYCAKEGSHGTDDSHYDVDVWGQGTTVTVSS
notes: IgG-VH tetravalent symmetric; PR002410 IgG x PR001838 VH; IgG1 (L234A, L235A)
With B2, in experiment [1], the EC50 was 4.05 nM and the “Maximum MFI” value stood at 37500 MFI. Moreover, in experiment [2], the EC50 came out at 0.89 nM and the “Maximum MFI” value was determined as 133000 MFI.

B3: PR004358 (bispecific antibody, human IgG1, kappa, L234A L235A)
light: EIVMTQSPASLSVSPGERATLSCRASQSVSSNLAWYQQKPGQAPRLLIYGASTRATGIPARVSGGGSGTEFTLTISSLQSEDFAVYYCQQYKNWPFTFGPGTKLEIKRTVAAPSVFIFPPSDEQLKSGTASVVCLLNNFYPREAKVQWKVDNALQSGNSQESVTEQDSKDSTYSLSSTLTLSKADYEKHKVYACEVTHQGLSSPVTKSFNRGEC
heavy: QVQLVQSGAEVKKPGSSMRVSCKASEDTFSSYAISWVRQAPGQGLEWMGGTAPIFGTTNYAQKFQGRVTITADKSTSTAYMELSSLRSEDTAVYYCARGGPYFDYWGQGTLVTVSSASTKGPSVFPLAPSSKSTSGGTAALGCLVKDYFPEPVTVSWNSGALTSGVHTFPAVLQSSGLYSLSSVVTVPSSSLGTQTYICNVNHKPSNTKVDKKVEPKSCDKTHTCPPCPAPEAAGGPSVFLFPPKPKDTLMISRTPEVTCVVVDVSHEDPEVKFNWYVDGVEVHNAKTKPREEQYNSTYRVVSVLTVLHQDWLNGKEYKCKVSNKALGAPIEKTISKAKGQPREPQVYTLPPSREEMTKNQVSLTCLVKGFYPSDIAVEWESNGQPENNYKTTPPVLDSDGSFFLYSKLTVDKSRWQQGNVFSCSVMHEALHNHYTQKSLSLSPGEPKSSDKTHTPPPPPRTEVQLVESGGGLVQPGGSLRLSCAASGFTFSSYWMHWVRQAPGKGLVWVSRINSDGSSTSYADSVQGRFTISRDNAKNTLYLQMNSLRAEDTAVYYCVRKGSSSYYHYSIEDDWGQGTLVTVSSGGGGSEVQLVESGGGLVQPGGSLRLSCAASGFTFSSYWMHWVRQAPGKGLVWVSRINSDGSSTSYADSVQGRFTISRDNAKNTLYLQMNSLRAEDTAVYYCVRKGSSSYYHYSIEDDWGQGTLVTVSS
notes: IgG-VH-VH hexavalent symmetric; PR002410 IgG x PR001840 VH; IgG1 (L234A, L235A, P329G)
Consider B3, for which, in experiment [1], it took 2.91 nM to reach a half-maximal effect (EC50) and the “Maximum MFI” value amounted to 38500 MFI. In experiment [2], the EC50 was 0.519 nM and the “Maximum MFI” value is 50200 MFI.

B4: PR004158 (bispecific antibody, human IgG1, kappa)
light: EIVMTQSPASLSVSPGERATLSCRASQSVSSNLAWYQQKPGQAPRLLIYGASTRATGIPARVSGGGSGTEFTLTISSLQSEDFAVYYCQQYKNWPFTFGPGTKLEIKRTVAAPSVFIFPPSDEQLKSGTASVVCLLNNFYPREAKVQWKVDNALQSGNSQESVTEQDSKDSTYSLSSTLTLSKADYEKHKVYACEVTHQGLSSPVTKSFNRGEC
heavy: QVQLVQSGAEVKKPGSSMRVSCKASEDTFSSYAISWVRQAPGQGLEWMGGTAPIFGTTNYAQKFQGRVTITADKSTSTAYMELSSLRSEDTAVYYCARGGPYFDYWGQGTLVTVSSASTKGPSVFPLAPSSKSTSGGTAALGCLVKDYFPEPVTVSWNSGALTSGVHTFPAVLQSSGLYSLSSVVTVPSSSLGTQTYICNVNHKPSNTKVDKKV[letters of human IgG1 Fc with changes not shown]EPKSSDKTHTPPPPPRTEVQLVESGGGVVQPGGSLRLSCAASGFTFSNYAMTWVRQAPEKGLEWVSSISGSGVSTYYADSVKGRFTISRDNSKNTLYLQMTRLTAEDTAVYFCAKEGSSETDDHYYNVDVWGQGTTVTVSSGGGGSEVQLVESGGGVVQPGGSLRLSCAASGFTFSNYAMTWVRQAPEKGLEWVSSISGSGVSTYYADSVKGRFTISRDNSKNTLYLQMTRLTAEDTAVYFCAKEGSSETDDHYYNVDVWGQGTTVTVSS
notes: IgG-VH-VH hexavalent symmetric; PR002410 IgG x PR001760 VH; IgG1 (L234A, L235A)
With B4, in experiment [3], the EC50 stood at 0.248 nM and the “Maximum MFI” value amounted to 14500 MFI.

B5: PR003487 (bispecific antibody, human IgG1, kappa)
light: EIVMTQSPATLSVSPGERATLSCRASQSISSNLGWYQQKPGQAPRLLIYGASTRATGIPARFSGSGSGTEFTLTISSLQSEDFAVYYCQQYQSWPPLTFGGGTKVEIKRTVAAPSVFIFPPSDEQLKSGTASVVCLLNNFYPREAKVQWKVDNALQSGNSQESVTEQDSKDSTYSLSSTLTLSKADYEKHKVYACEVTHQGLSSPVTKSFNRGEC
heavy: QVQLVESGGGVVQPGRSLRLSCAASGFTFRSFGMHWVRQAPGKGLEWVAVISYDASNEYYADSVKGRFIISRDNSKDTLYLQMNSLRAGDTAVYYCAKGGGLRWYFAYWGQGTLVTVSSASTKGPSVFPLAPSSKSTSGGTAALGCLVKDYFPEPVTVSWNSGALTSGVHTFPAVLQSSGLYSLSSVVTVPSSSLGTQTYICNVNHKPSNTKVDKKV[letters of human IgG1 Fc with changes not shown]EPKSSDKTHTPPPPPRTEVQLVESGGGVVQPGGSLRLSCAASGFTFSNYAMTWVRQAPEKGLEWVSSISGSGVSTYYADSVKGRFTISRDNSKNTLYLQMTRLTAEDTAVYFCAKEGSSETDDHYYNVDVWGQGTTVTVSSEVQLVESGGGVVQPGGSLRLSCAASGFTFSNYAMTWVRQAPEKGLEWVSSISGSGVSTYYADSVKGRFTISRDNSKNTLYLQMTRLTAEDTAVYFCAKEGSSETDDHYYNVDVWGQGTTVTVSS
notes: IgG-VH-VH hexavalent symmetric; PR002408 IgG x PR001760 VH; no second linker; IgG1 (L234A, L235A)
For the molecule B5, the EC50 in experiment [4] was 0.755 nM; in experiment [5], 0.564 nM. Moreover, the results for the “Maximum MFI” value in experiment [4] and in experiment [5] were 95700 MFI and 15800 MFI, respectively.
